In all, about 1,000 compounds went through this assay and about 200 (20%) were called active. No stated cut-off is given here; in the data, active means inhibition above about 55%; inactive means the rest. This is a selection; strong and weak results do not stand in their true shares. Measured potencies and affinities stand elsewhere.

Inhibition data for 27 compounds are collected here from PubChem BioAssay AID1878 (Sanford-Burnham Center for Chemical Genomics, 2009).

The target of this test is Dual specificity protein phosphatase 3 (Homo sapiens) (UniProt P51452). In words: VHR1 phosphatase inhibitors, biochemical (AID 1878). Conditions: recombinant VHR phosphatase, fluorogenic substrate; at 13.3 µM; active compounds read high.
Chain of UniProt P51452 (P51452 whole entry, looked up): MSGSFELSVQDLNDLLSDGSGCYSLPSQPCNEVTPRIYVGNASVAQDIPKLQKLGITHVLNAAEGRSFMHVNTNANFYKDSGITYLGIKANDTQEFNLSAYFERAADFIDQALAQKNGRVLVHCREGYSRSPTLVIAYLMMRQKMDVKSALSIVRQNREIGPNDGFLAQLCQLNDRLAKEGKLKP
With `Cc1ccc(CNc2ccc(N3CCOCC3)c(Cl)c2)cc1`, the inhibition is inactive: 8%. With `Cc1cc(OC(C)C(=O)NC2CC(C)(C)NC(C)(C)C2)c2c(C)cc(=O)oc2c1` (configuration not stated) the figure was inactive: -0.6%; with `COCCCNC(=S)N(CCN(C)C)Cc1cc2cc3c(cc2[nH]c1=O)OCCO3`, inactive: -7.7%; with `O=S(=O)(Nc1ccc2ccccc2n1)c1ccccc1Cl`, inactive: 3.5%. With `CCC1CCCCN1CCCNC(=O)c1ccc2c(c1)NC(=O)CN2C` (configuration not stated) the figure was inactive: -26.5%. Under `CN1CCN(Cc2cn(C)c3ccccc23)CC1CCO` (configuration not stated) stands inactive: -8%; under `O=C(Nc1nnc(SCc2c(Cl)cccc2Cl)s1)c1ccc2ncsc2c1`, active: 66.9%. Turning to `CCN(CC)CCCNC(=O)CCn1nc(-c2ccc(Cl)cc2)ccc1=O`, the inhibition was inactive: 18.8%. With `CCOc1ccc(Br)cc1S(=O)(=O)NC1CC(C)(C)NC(C)(C)C1` the figure was inactive: -2.1%; with `O=C1NC(=S)S/C1=C\c1ccc(SCc2ccco2)o1`, inactive: 40.9%; with `O=C(COc1cc2oc(=O)c3c(c2cc1Cl)CCC3)NCCCN1CCOCC1`, inactive: -6.6%. Under `Cc1cc(C(=O)NC2CCCc3c2cnn3-c2cccc(C)c2C)c(C)o1` (configuration not stated) stands inactive: -5.2%.

As to `CCOc1ccccc1CNS(=O)(=O)c1cc(-c2cc(C)no2)ccc1C`, the inhibition is inactive: 12.3%.

As for `O=C(O)c1c2c(nc3ccccc13)/C(=C/c1ccc(O)cc1)CC2`, the inhibition is inactive: 44.4%. Under `CCOc1ccc(S(=O)(=O)NCCCn2ccnc2)cc1NC(C)=O` stands inactive: 2.2%; under `CCOc1ccc(NC(=O)[C@H](C)NC(=O)C2CC(=O)N(c3ccc(OC)cc3)C2)cc1` (some centres not stated), inactive: 18%.

For `OC(CNCc1ccc(Cl)c(Cl)c1)c1ccccc1` (configuration not stated), the inhibition was inactive: -14.3%. With `COc1ccc(Cn2c(-c3ccc(C)cc3)nc3c(c(=O)c4ccccc4n3C)c2=O)cc1` the figure was active: 85.9%; with `O=C(Nc1cc([N+](=O)[O-])ccc1O)c1cccc(C(=O)Nc2cc([N+](=O)[O-])ccc2O)c1`, active: 98.4%; with `O=C(NCc1ccc(F)cc1)C1CCN(S(=O)(=O)c2cccc3nonc23)CC1`, inactive: 4.8%. Under `Cc1cccc(S(=O)(=O)N2CCCc3ccccc32)c1` stands inactive: 6.7%. With `CSCCNC(=O)c1ccc2nc(Cc3ccccc3F)oc2c1` the figure was inactive: -8.6%. For `CCN(CC)CCNC(=O)Cn1cnc2sc(C)c(S(=O)(=O)N3CC(C)CC(C)C3)c2c1=O` (configuration not stated), the inhibition is inactive: -8.4%. Under `Oc1ccc(N=Cc2c(O)ccc3ccccc23)cc1` stands inactive: 13.1%; under `CC(=O)Oc1ccc2c(c1)C(=O)c1ccccc1C2=O`, inactive: 14%. Under `CCCCC(=O)Nc1ccccc1N1CCN(c2ccc(F)cc2)CC1` stands inactive: -6.4%; under `Cc1cc(-c2ccccc2)nc(N/N=C/c2ccccc2F)n1`, inactive: -3.9%.
